Measurements from patent US20160237160A1, “ANTI-TWEAKR ANTIBODIES AND USES THEREOF” (BAYER PHARMA AKTIENGESELLSCHAFT, priority 2013, published 2016).

Assays:
Lovo cells = experiment: Inhibition of proliferation (Cell Titer Glo); format: cell-based, human; conditions: 72h, 100 μg/ml antibody or *100 ng/ml TWEAK
Protocol: (§1) Therefore cells were plated in 96well plates in 750 assay medium (growth media from Table 21, plus 100 ng/ml IFN gamma for 786-O cells) at the following cell numbers: WiDr cells 3000 cells/well, 786-O cells 2500 cells/well. 24 h later cells were incubated with anti-TWEAKR antibodies (see Table 26), recombinant human TWEAK or isotype control IgG (not shown) at the indicated concentrations (antibodies from 0.03-300 μg/ml, TWEAK 100 or 300 ng/ml). At the time of antibody addition cell viability was determined in sister plates (time point zero): therefore 750/well CTG solution (Promega Cell Titer Glo solution (catalog # G755B and G756B) was added to the cells, incubated for 10 minutes and luminescence was read on a Victor V (Perkin Elmer). 96 h after incubation with the agents, cell viability was determined in the assay plates by addition of 100 μl/well CTG solution, 10 min incubation and reading of luminescence. Proliferation in control wells was calculated by subtracting time zero values from the luminescence values in the untreated control wells. % of cell proliferation was calculated in the compound treated wells as compared to the untreated control wells.
(§2) To evaluate, whether this strong anti-proliferative activity can also be observed in a broader cell panel, in addition LOVO, NCI-H1975, SW-480 (all 3000 cells/well), HT-29 (4000 cells/well), A253 and SK-OV3 (both 2500 cells/well) cells were incubated with 100 μg/ml anti-TWEAKR antibodies or TWEAK ligand for the time periods as indicated in Table 27. All cells were seeded in the growth media indicated in Table 21 and for all cells except for WiDr cells 100 ng/ml IFNgamma was added to the assay medium when seeding the cells. The percentage of growth inhibition for treated cells as compared to proliferation in untreated control cells was measured and calculated as described above. As shown in Table 27 the antibodies of the current invention are more efficacious as compared to other known antibodies in inhibiting proliferation of various cancer cell lines at 100 μg/ml. […]

NCI-H1975 cells = experiment: Inhibition of proliferation (Cell Titer Glo); format: cell-based, human; conditions: 72h, 100 μg/ml antibody or *100 ng/ml TWEAK
Protocol: as §1, §2

SW480 cells = experiment: Inhibition of proliferation (Cell Titer Glo); format: cell-based, human; conditions: 72h, 100 μg/ml antibody or *100 ng/ml TWEAK
Protocol: as §1, §2

SW-480 cells = experiment: FACS binding to cell surface; set-up: species or system human; conditions: SW-480, CRC; 10 μg/ml
Protocol: (§3) To determine the binding characteristics of the anti-TWEAKR antibodies on mouse and human cancer cell lines, binding was tested by flow cytometry to a panel of cell lines. Adherent cells were washed twice with PBS without Ca and Mg (Biochrom #L1825: aqueous solution containing 8000 mg/l NaCl, 200 mg/l KCl, 1150 mg/l Na2HPO4, and 200 mg/l KH2PO4) and detached by enzyme-free PBS based cell dissociation buffer (Invitrogen). Cells were suspended at approximately 10^5 cells/well in FACS buffer (PBS without Ca/Mg, containing 3% FCS, Biochrom). Cells were centrifuged (250 g, 5 min, 4° C.) and supernatant discarded. Cells were resuspended in dilutions of the antibodies of interest (10 μg/ml in 80 μl if not indicated otherwise) in FACS buffer, and incubated on ice for 1 h. In the following cells were washed once with 1000 cold FACS buffer and 80 μl secondary antibody diluted at 1:150 (PE goat anti-human IgG, Dianova #109-115-098, or PE Goat Anti-Mouse IgG, Jackson Immuno Research #115-115-164) was added. After incubation for 1 h on ice cells were again washed with cold FACS buffer, resuspended in 1000 FACS buffer and analyzed by flow cytometry using a FACS-Array (BD Biosciences). Results are calculated as Geo Mean of fluorescence detected by the antibody of interest subtracted by background fluorescence as measured by detection with the secondary antibody alone. Values are scored according to the following system: Geo Mean−Geo Mean of secondary antibody alone >10: +, >100: ++, >1000: +++, 10000: ++++, close to category border in ( ).

SCC4 cells = experiment: FACS binding to cell surface; set-up: species or system human; conditions: SCC4, HNSCC; 10 μg/ml
Protocol: as §3

MiaPaca2 cells = experiment: FACS binding to cell surface; set-up: species or system human; conditions: MiaPaca2, PancCA; 10 μg/ml
Protocol: as §3

MDA-MB-453 cells = experiment: FACS binding to cell surface; set-up: species or system human; conditions: MDA-MB-453, BreastCA; 10 μg/ml
Protocol: as §3

A375 cells = experiment: FACS binding to cell surface; set-up: species or system human; conditions: A375, Melanoma; 10 μg/ml
Protocol: as §3

A549 cells = experiment: FACS binding to cell surface; set-up: species or system human; conditions: A549, NSCLC; 10 μg/ml
Protocol: as §3

Fadu cells = experiment: FACS binding to cell surface; set-up: species or system human; conditions: HNSCC, 10 μg/ml
Protocol: as §3

EKVX cells = experiment: FACS binding to cell surface; set-up: species or system human; conditions: NSCLC, 10 μg/ml
Protocol: as §3

MDA-MB-231 cells = experiment: FACS binding to cell surface; set-up: species or system human; conditions: MDA-MB-231, BreastCA; 10 μg/ml
Protocol: as §3

Scaber cells = experiment: FACS binding to cell surface; set-up: species or system human; conditions: Bladder CA, 10 μg/ml
Protocol: as §3

PC3 cells = experiment: FACS binding to cell surface; set-up: species or system human; conditions: PC3, Prostate CA; 10 μg/ml
Protocol: as §3

NCI-H460 cells = experiment: FACS binding to cell surface; set-up: species or system human; conditions: NCI-H460, NSCLC; 10 μg/ml
Protocol: as §3

Calu-6 cells = experiment: FACS binding to cell surface; set-up: species or system human; conditions: Calu-6, NSCLC; 10 μg/ml
Protocol: as §3

NCI-N87 cells = experiment: FACS binding to cell surface; set-up: species or system human; conditions: NCI-N87, GastricCA; 10 μg/ml
Protocol: as §3

HT-29 cells = experiment: FACS binding to cell surface; set-up: species or system human; conditions: HT-29, CRC; 10 μg/ml
Protocol: as §3

B1: TPP-1538: anti-TWEAKR human IgG1; heavy chain SEQ ID NO: 62, light chain SEQ ID NO: 61 (antibody, listed as Homo Sapiens)
heavy: EVQLLESGGGLVQPGGSLRLSCAASGFTFSPYPMMWVRQAPGKGLEWVSYISPSGGKTHYADSVKGRFTISRDNSKNTLYLQMNSLRAEDTAVYYCARGGDTYFDYFDYWGQGTLVTVSS[human IgG1 constant region not shown]
light: AQDIQMTQSPATLSASVGDRVTITCRASQSISSYLNWYQQKPGKAPKLLIYAASSLQSGVPSRFSGSGSGTDFTLTISSLQPEDFATYYCQQSYSSPGITFGPGTKVEIKRTVAAPSVFIFPPSDEQLKSGTASVVCLLNNFYPREAKVQWKVDNALQSGNSQESVTEQDSKDSTYSLSSTLTLSKADYEKHKLYACEVTHQGLSSPVTKSFNRGEC
+ (>10: +): Binding by scoring of FACS analysis (MiaPaca2 cells) | Binding by scoring of FACS analysis (MDA-MB-453 cells)
65%: % Inhibition of proliferation (Lovo cells)
+++ (>1000: +++): Binding by scoring of FACS analysis (SCC4 cells)
64%: % Inhibition of proliferation (NCI-H1975 cells)
49%: % Inhibition of proliferation (SW480 cells)
++ (>100: ++): Binding by scoring of FACS analysis (SW-480 cells) | Binding by scoring of FACS analysis (A375 cells) | Binding by scoring of FACS analysis (A549 cells) | Binding by scoring of FACS analysis (Fadu cells) | Binding by scoring of FACS analysis (EKVX cells) | Binding by scoring of FACS analysis (MDA-MB-231 cells) | Binding by scoring of FACS analysis (Scaber cells) | Binding by scoring of FACS analysis (PC3 cells) | Binding by scoring of FACS analysis (NCI-H460 cells) | Binding by scoring of FACS analysis (Calu-6 cells) | Binding by scoring of FACS analysis (NCI-N87 cells) | Binding by scoring of FACS analysis (HT-29 cells)
